Source: PubChem BioAssay AID1508649 (National Center for Advancing Translational Sciences (NCATS), 2021)
Screen size: about 43,000 compounds; about 830 (1.9%) were called active. The shares of active, inactive and inconclusive entries below differ from those in the screen. The calls were made as follows: active = clear falling dose curves in both reporters; inconclusive = both reporters move, but less clearly or upward; inactive = either reporter flat; the % is the NLuc reporter signal. Potencies of inconclusive entries are left out as doubtful fits.

test: Cell-based coincidence reporter assay to measure PMP22 gene transcription in S16 Pmp22-F2sN cells - Primary screen; conditions: S16 Pmp22-F2sN Schwann cells (luciferase reporters placed in the Pmp22 gene), FLuc/NLuc coincidence luminescence, 24 h; measured here: NLuc reporter readout, at 57.5 µM (top of the series); activity change, negative = inhibition: at the top concentration
How it was run: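 Reporter cells (S16 Pmp22-F2sN, 500–1,000 per well) exposed to compounds for 24 h, 37C, 5% CO2; lysis with FLuc read after 10 min, then Stop&Glo and NLuc read after 10 min.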
% is scaled to controls: 0 for no effect and ±100 for the full control effect; potency is read from the fitted curve at half-maximal effect; tags tell the direction and shape of the fitted curve.

| SMILES | Potency | activity change, negative = inhibition |
| --- | --- | --- |
| Cc1cc(C)cc(NC(=O)C(=O)NCC(c2ccc3c(c2)OCO3)N2CCN(C)CC2)c1 (centres undefined) | inconclusive [phenotype inactive, single point] | – |
| CN(CCCNC(=O)c1cc2c(Cl)nc3ccccc3c2s1)Cc1ccccc1 | inconclusive [phenotype inactive, partial curve] | – |
| Cc1c(Cl)cccc1NC(=O)CSc1ncc2c(n1)-c1ccccc1N(C)S2(=O)=O | active: 16.8 µM | – |
| O=C(COc1ccccc1)NCCc1csc(-c2ccc(Cl)cc2)n1 | inconclusive [phenotype inactive, single point] | – |
| COc1ccc(CCn2c(=O)c3cccnc3n(CC(=O)Nc3ccc(C)c(F)c3)c2=O)cc1OC | inconclusive [phenotype inactive, single point] | – |
| CCC1CN(C(=O)N2CCC(C(=O)NCCc3cc(OC)ccc3OC)CC2)c2ccccc2O1 (centres undefined) | inconclusive [phenotype inactive, single point] | – |
| Cc1cccc(-c2c3c(=O)n(C)c(=O)n(C)c3c3c(C)nc4ccccc4n23)c1 | active: 13.3 µM | – |
| Cc1ccc(C(=O)N2CCc3cc(CNC(=O)CSc4ccccc4)ccc32)cc1 | inconclusive [phenotype inactive, single point] | – |
| Cc1cccc(N2CCN(C(=O)C3CCN(C(=O)c4cc5sccc5n4C)CC3)CC2)c1C | inconclusive [phenotype inactive, partial curve] | – |
| Cc1[nH]n2c(=O)cc(-c3ccc(Cl)cc3)nc2c1-c1ccccc1 | active: 8.53 µM | – |
| Cc1cccc(-c2nn3c(=O)cc(CN4CCN(C(=O)c5ccccc5Br)CC4)nc3s2)c1 | inconclusive [phenotype inactive, full curve, poor fit] | – |
| CCCN(CCC)CCCNC(=O)c1cnn(-c2ccc(F)cc2)c1-n1cccc1 | – | inactive: -22.7% |
| COc1cccc(C(=O)Nc2ccc(-n3nncc3-c3ccccc3)cc2)c1OC | – | inactive: -1.95% |
| CCCSCCCNC(=O)C1CCN(C(=O)c2cnn(-c3ccccc3)c2-n2cccc2)CC1 | inconclusive [phenotype inactive, single point] | – |
| COc1ccc(N(Cc2ccccc2)C(=O)c2nc(S(C)(=O)=O)ncc2Cl)cc1 | active: 1.78 µM | – |
| COc1cccc(/C=C/c2onc(C)c2S(=O)(=O)N2CCC(C(=O)N3CCCCC3)CC2)c1 | inconclusive [phenotype inactive, single point] | – |
| CCc1ccc(NCc2cc3ccc(OC)cc3n(CC(=O)Nc3ccccc3C)c2=O)cc1 | inconclusive [phenotype inactive, single point] | – |
| CC(C)Oc1ccc(CN2CCc3nc(Nc4ccc5c(c4)OCCO5)ncc3C2)cc1 | – | inactive: -16.2% |
| COC(=O)c1ccc(NC(=O)CN2CCCN(Cc3ccc(Cl)cc3)S2(=O)=O)cc1 | inconclusive [phenotype inactive, single point] | – |
| O=C(CC1N=C2c3ccccc3N=C(SCc3ccc(F)cc3)N2C1=O)NC1CCCCC1 (centres undefined) | inconclusive [phenotype inactive, partial curve] | – |

| SMILES | Potency | activity change, negative = inhibition |
| --- | --- | --- |
| CCc1cccc(C)c1Nc1c(-c2ccc(SC)cc2)nc2sccn12 | inconclusive [phenotype inactive, single point] | – |
| CCOc1ccccc1NC(=O)C1CCC(CNS(=O)(=O)c2ccc3c(c2)CCCC(=O)N3)CC1 (centres undefined) | inconclusive [phenotype inactive, single point] | – |
| Cc1ccc(Cl)cc1N1CCN(CCCNC(=O)Cn2ncc3c([nH]c4ccccc43)c2=O)CC1 | inconclusive [phenotype inactive, partial curve] | – |
| CN(C)CCNC(=O)c1ccc(Cn2c(SCc3ccc(F)cc3)nc3cccnc32)cc1 | – | inactive: 10.4% |
| O=C(c1cccs1)c1cn(CCOc2ccc(Cl)cc2)c2ccccc12 | inconclusive [phenotype inactive, partial curve, poor fit] | – |
| COc1ccc(OC)c(NC(=O)CSC2=Nc3ccccc3C3=NC(CCC(=O)NCc4ccccc4)C(=O)N23)c1 (centres undefined) | active: 12 µM | – |
| CC1CCN(c2nc(-c3ccc(C(C)(C)C)cc3)nc3ccccc23)CC1 | inconclusive [phenotype inactive, partial curve, poor fit] | – |
| CC(C)CCN(C(=O)Nc1ccc(Cl)c(Cl)c1)C1CCN(C(C)C)CC1 | inconclusive [phenotype inactive, partial curve] | – |
| CCOC(=O)c1cc2c(=O)n3ccccc3nc2n(CC2CCCO2)c1=NC(=O)c1ccccc1Br (centres undefined) | inconclusive [phenotype inactive, single point] | – |
| O=C(c1cc2ccc3cccnc3c2[nH]1)N1CCCCC1 | – | inactive: -5.74% |
| O=C(NCCc1csc(-c2cccc(F)c2)n1)C(=O)Nc1cc(F)ccc1F | inconclusive [phenotype inactive, single point] | – |
| Cc1cc(C)n(CCc2nc3c4ccccc4nc(SCc4ccc(F)cc4)n3n2)n1 | – | inactive: 1.84% |
| O=c1c2cnn(-c3ccc(F)cc3)c2ncn1Cc1ccccc1Cl | – | inactive: -7.3% |
| Cc1ccc(S(=O)(=O)c2nnn3c2nc(NC2CCCCCC2)c2sccc23)cc1C | active: 20 µM | – |
| Cc1cc(NC(=O)c2ccccc2F)ccc1-c1nc2ccccc2s1 | – | inactive: -2.68% |
| Cc1ccc(Cn2c(CN3CCC(C(=O)NCc4cccnc4)CC3)cc3ccccc32)cc1 | inconclusive [phenotype inactive, single point] | – |
| Cc1ccn2c(Nc3ccccc3C)c(-c3ccncc3)nc2c1 | inconclusive [phenotype inactive, single point] | – |
| Cc1ccc(-n2c(SCC(=O)N3CCc4ccccc43)nc3c([nH]c4ccccc43)c2=O)cc1 | – | inactive: -31% |
| Cc1c(Cl)cccc1NC(=O)Nc1nnc(N(C)C2CCCCC2)s1 | inconclusive [phenotype inactive, single point] | – |
| COc1ccc(OC)c(NC(=O)CSc2c3c(nc4cc(Cl)ccc24)CCCC3)c1 | inconclusive [phenotype inactive, single point] | – |

| SMILES | Potency | activity change, negative = inhibition |
| --- | --- | --- |
| CCCCNC(=O)c1cc(-c2cccnc2)nc2ccc(S(=O)(=O)NCCCC)cc12 | inconclusive [phenotype inactive, single point] | – |
| CCN(CC)C(=O)c1sc2c(c1C)c(=O)n(CCc1ccccc1)c(=O)n2Cc1ccc(C)cc1 | inconclusive [phenotype inactive, single point] | – |
| CC(=O)c1c(C)n(S(=O)(=O)c2ccc(Cl)cc2)c2ccc(NS(=O)(=O)c3ccc(Cl)cc3)cc12 | inconclusive [phenotype inactive, single point] | – |
| Cc1ccc(C)c(NC(=O)CSc2nnc3[nH]c(=O)cc(-c4ccccc4)n23)c1 | inconclusive [phenotype inactive, partial curve, poor fit] | – |
| CCCn1cc(S(=O)(=O)c2cc(C)ccc2C)c(=O)c2cc(F)c(N3CCN(CC)CC3)cc21 | inconclusive [phenotype inactive, single point] | – |
| CCc1ccccc1NC(=O)c1sc(-n2nc(C)c(Cc3ccccc3)c2C)nc1C | inconclusive [phenotype inactive, single point] | – |
| CCOc1ccc(N(C(C)C(=O)NCCSc2ccc(Cl)cc2)S(C)(=O)=O)cc1 (centres undefined) | inconclusive [phenotype inactive, single point] | – |
| CC(C)(CC(=O)OCC(=O)Nc1ccccc1F)CC1=NS(=O)(=O)c2ccccc2N1 | inconclusive [phenotype inactive, single point] | – |
| COc1cc(OC)cc(C(=O)Nc2ccc(-c3nc4ccccc4s3)c(C)c2)c1 | – | inactive: 10.6% |
| Cc1ccc(NC(=O)c2nnn(Cc3cccc(C(F)(F)F)c3)c2N)c(C)c1 | active: 5.97 µM | – |
| O=C(Nc1cc(Cl)cc(Cl)c1)c1cc(S(=O)(=O)N2CCC3(CC2)OCCO3)ccc1F | inconclusive [phenotype inactive, partial curve] | – |
| CCN(Cc1ccccc1)C(=O)Cn1c(=O)n(-c2ccc(Cl)c(Cl)c2)c(=O)c2c(C)c(C(=O)N(C)C)sc21 | inconclusive [phenotype inactive, single point] | – |
| Cc1ccc(NC(=O)CCn2c(=O)c3cccn3c3ccccc32)cc1Cl | inconclusive [phenotype inactive, single point] | – |
| Cc1cc2c(cc1S(=O)(=O)NCc1ccccc1Cl)OCC(=O)N2 | – | inactive: 12.4% |
| COc1cc(Cl)c(C)cc1Nc1nc2ccccc2n2cnnc12 | – | inactive: -12.5% |
| CCOC(=O)c1ccccc1NC(=O)c1cnc(N2CCOCC2)c2ccccc12 | inconclusive [phenotype inactive, partial curve, poor fit] | – |
| O=c1c2oc3ccccc3c2n(Cc2ccccc2)c(=O)n1Cc1ccco1 | inconclusive [phenotype inactive, partial curve, poor fit] | – |
| Cc1ccc(Cl)cc1N1CCN(CCCNc2ncnc3onc(-c4ccc(Cl)cc4)c23)CC1 | active: 14.2 µM | – |
| Cc1ccc(OCCn2cc(C(=O)c3ccco3)c3ccccc32)cc1C | inconclusive [phenotype inactive, single point] | – |
